Test results published in PubChem BioAssay AID624171 (National Center for Advancing Translational Sciences (NCATS), 2012).
Out of some 410,000 compounds screened, about 1,200 (0.29%) were called active. Inconclusive means that the source gave no clear call. Such entries were picked first, then a sample of the others. Calls come from the whole dose curve; as a rule, active = well fitted activation curve with a large enough effect; inconclusive = small, poorly fitted or top-dose-only effect; inactive = flat fitted curve, though single readings scatter. A potency beside an inconclusive call is a rough fit, not a confirmed value.

test: qHTS of Nrf2 Activators; details: AREc32 ARE-luciferase reporter (MCF7-derived line), luminescence, 24 h; activation: at 46.1 µM (top of the series); note: nearly all actives have a fitted effect of over 65% in size; for activation: % of control where 0% means no effect
Summary of the method: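 Steps: seed AREc32_Fluc cells (1000/well, 5% FBS OPTI-MEM); incubate overnight at 37 deg C; add 23 nL compound; incubate 24 hr; add Steady-Glo; hold 30 min RT; read luminescence.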
Potency is the fitted concentration of half-maximal effect; tags give direction and shape of the fitted curve.

| Structure (SMILES) | Potency | activation |
| --- | --- | --- |
| Clc1cccc(Cc2c(-c3ccco3)nc3ccc(Br)cn23)c1 | inconclusive: 7.08 µM [activator, partial curve, poor fit] | – |
| CCOC(=O)Cc1ccc(NC(=O)Nc2nnc(N3CCCCC3C)s2)cc1 (configuration not stated) | – | inactive: 0.0192% |
| COc1ccc2nc(-c3ccccc3)cc(OC)c2c1 | inconclusive: 11.2 µM [activator, partial curve, poor fit] | – |
| O=[N+]([O-])c1cc([N+](=O)[O-])c2cc3ccccc3nc2c1 | inconclusive: 12.6 µM [activator, partial curve, poor fit] | – |
| COc1ccc(-c2csc(NC(=S)NC(=O)c3ccco3)n2)cc1 | inconclusive: 11.2 µM [activator, partial curve, poor fit] | – |
| Cc1nccn1C[C@@H]1CCc2c(c3ccccc3n2C)C1=O | – | inactive: -1.35% |
| COc1cccc(-c2cc(=O)[nH][nH]2)c1 | inconclusive: 25.1 µM [activator, single point] | – |
| Cc1ccc(O)c(C(=O)CC(=O)c2cccc(F)c2)c1 | inconclusive: 15.8 µM [activator, single point] | – |
| O=C(/C=C/c1ccc2c(c1)OCCO2)c1ccccc1 | inconclusive: 17.8 µM [activator, single point] | – |
| CCN1CCN(CCCNC(=O)CN2C(=O)c3cccnc3Oc3ccc(Cl)cc32)CC1 | – | inactive: -0.368% |
| O=C(CCOc1ccccc1)N(Cc1cccnc1)c1nc2c(F)cc(F)cc2s1 | inconclusive: 20 µM [activator, single point] | – |
| Cc1noc(C(=O)Nc2cccc(Cl)c2)c1Cl | inconclusive: 2.82 µM [activator, full curve, poor fit] | – |
| O=C(COC(=O)/C=C/c1ccco1)Nc1ccc(F)cc1Cl | active: 3.16 µM | – |
| CCOc1ccccc1NC(=O)Cn1c(=O)n(CCC(=O)NCc2ccc3c(c2)OCO3)c(=O)c2ccccc21 | – | inactive: -0.122% |
| CCCSc1nn2c(=O)c3ccccc3nc2s1 | inconclusive: 20 µM [activator, single point] | – |
| O=C(COc1ccccc1)Nc1ccccc1Cl | inconclusive: 35.5 µM [activator, partial curve, poor fit] | – |
| O=C(/C=C(\c1ccccc1)n1cncn1)c1ccccc1 | inconclusive: 25.1 µM [activator, single point] | – |
| Cc1ccc(NC2=C(Cl)C(=O)OC2OC(=O)c2ccco2)cc1 (configuration not stated) | inconclusive: 35.5 µM [activator, single point] | – |
| CC(=O)Oc1ccc2c(c1)O/C(=C\c1ccncc1)C2=O | inconclusive: 20 µM [activator, single point] | – |
| COc1ccccc1CNC(=O)c1ccc(Cn2c(SCc3ccccc3)nc3cccnc32)cc1 | – | inactive: 5% |
| Cc1ccc(N/C=C/C(=O)c2cccs2)cc1C | inconclusive: 2.82 µM [activator, partial curve, poor fit] | – |
| S=C1SCN(CCc2ccccc2)CN1CCc1ccccc1 | inconclusive: 17.8 µM [activator, single point] | – |
| O=C(NCc1ccccn1)C1CCCN(S(=O)(=O)c2cc(Cl)ccc2Cl)C1 (configuration not stated) | inconclusive: 22.4 µM [activator, partial curve, poor fit] | – |
| O=C1C(Cl)=C(N2CCOCC2)C(=O)N1CCc1ccccc1 | inconclusive: 12.6 µM [activator, partial curve] | – |

| Structure (SMILES) | Potency | activation |
| --- | --- | --- |
| CCN1CCC(O)(/C=C/c2ccc(C)cc2)C(C(=O)/C=C/c2ccc(C)cc2)C1 (configuration not stated) | inconclusive: 3.98 µM [activator, single point] | – |
| Cc1ccc(N2CC(NC(=O)c3cccc(Cl)c3)CC2=O)cc1C (configuration not stated) | – | inactive: -0.0036% |
| COc1ccccc1Nc1nc2ccccc2[nH]1 | – | inactive: 7.74% |
| COc1cc(CCNC2=CC(=O)c3ncccc3C2=O)ccc1O | – | inactive: -2.81% |
| O=C(Cc1ccccc1)N/N=C/c1ccc(OC(=O)/C=C\c2ccco2)cc1 | inconclusive: 35.5 µM [activator, single point] | – |
| Cc1ccc(-c2nnc3c4ccccc4c(C)nn23)cc1NC(=O)c1ccccc1 | inconclusive: 14.1 µM [activator, single point] | – |
| c1ccc(-c2nc(-c3ccco3)cs2)nc1 | active: 12.6 µM | – |
| CCCOc1cccc(C(=O)NC(=S)Nc2cccc(C(F)(F)F)c2)c1 | – | inactive: 2.84% |
| Clc1nc(-c2ccccc2)ncc1Oc1ccccc1 | inconclusive: 10 µM [activator, partial curve] | – |
| COc1ccc(N2CCN(c3cc(C)c4cccc(C)c4n3)CC2)cc1 | – | inactive: 2.05% |
| CNc1ccccc(C(=O)/C=C/c2ccccc2OC)c1=O | inconclusive: 2.82 µM [activator, full curve, poor fit] | – |
| FC(F)(F)c1cc(-c2ccco2)nc(-n2cnc3ccccc32)n1 | inconclusive: 3.16 µM [activator, partial curve, poor fit] | – |
| Cn1c(/C(C#N)=C/c2cccc(O)c2)nc2ccccc21 | inconclusive: 14.1 µM [activator, single point] | – |
| Oc1c(N=Nc2ccccc2)sc2ccccc12 | active: 2.82 µM | – |
| Cc1cc(S(=O)(=O)Nc2cc(C)c(O)c(C)c2)c(C)s1 | inconclusive: 28.2 µM [activator, single point] | – |
| CCOC(=O)c1ccc(NC(=O)CN(C)S(=O)(=O)c2ccc(Br)s2)cc1 | – | inactive: -0.0889% |
| O=C(NCc1ccco1)c1sc2ccccc2c1Cl | inconclusive: 17.8 µM [activator, single point] | – |
| CCOC(=O)/C(=C/c1c(C)n(C)c2ccc([N+](=O)[O-])cc12)C(C)=O | inconclusive: 12.6 µM [activator, single point] | – |
| Cc1ccc(S(=O)(=O)N/N=C/c2c[nH]c3ccccc23)cc1 | – | inactive: 9.73% |
| COc1ccc(-n2c(=S)[nH]c3[nH]ncc3c2=O)cc1 | – | inactive: -0.445% |
| CCOc1cc(CNc2ccc(O)cc2)cc(Cl)c1OCc1ccccc1 | – | inactive: 9.99% |
| COC(=O)c1c(NC(=O)c2ccccc2)sc(C(N)=O)c1C | active: 1 µM | – |
| O=C1C(=C(c2ccccc2)N2CCOCC2)Cc2ccccc21 | inconclusive: 2.82 µM [activator, partial curve, poor fit] | – |
| O=C(NCC(c1cccnc1)N1CCN(Cc2ccccc2)CC1)C(=O)Nc1ccc(Cl)cc1 (configuration not stated) | – | inactive: 3.52% |

| Structure (SMILES) | Potency | activation |
| --- | --- | --- |
| CCOC(=O)c1cc(-c2ccccc2)sc1NC(=O)c1ccc(OC)c(OC)c1 | – | inactive: 0.0067% |
| O=C(Nc1ccc(OC(F)F)cc1)Nc1cccc(C(F)(F)F)c1 | – | inactive: 0.142% |
| CC(C)(C)C(=O)Nc1ccc(/C=C/C(=O)c2ccco2)cc1 | inconclusive: 35.5 µM [activator, single point] | – |
| O=C(Nc1ccccc1SC(=O)c1ccccc1)c1ccccc1 | inconclusive: 15.8 µM [activator, single point] | – |
| c1ccc(-c2c[nH]c(-c3ccccc3)c2)cc1 | inconclusive: 11.2 µM [activator, single point] | – |
| Cc1c(Cl)cccc1NC(CC(=O)c1ccccc1)C(=O)O (configuration not stated) | active: 15.8 µM | – |
| COc1ccc(C(=O)/C=C/c2ccc(O)cc2)cc1 | inconclusive: 25.1 µM [activator, single point] | – |
| COc1ccccc1-c1csc2ncnc(Sc3nnnn3C)c12 | inconclusive: 11.2 µM [activator, partial curve, poor fit] | – |
| CC(C)(C)C(=O)CSc1nc2c(c(-c3cccs3)c1C#N)CCC2 | inconclusive: 3.55 µM [activator, partial curve, poor fit] | – |
| CC(C)c1cc(C(=O)Nc2cc(Cl)ccc2O)no1 | inconclusive: 15.8 µM [activator, single point] | – |
| CCC(C)NC(=O)c1ccc(-n2c(-c3ccccc3)cc3c2CCCC3)cc1 (configuration not stated) | inconclusive: 15.8 µM [activator, partial curve, poor fit] | – |
| CCOc1ccc(C(=O)CC(C(=O)O)N2CCN(Cc3ccccc3)CC2)cc1 (configuration not stated) | inconclusive: 20 µM [activator, partial curve, poor fit] | – |
| COc1ccccc1N(C(C)=O)C1=C(Cl)C(=O)c2ccccc2C1=O | inconclusive: 3.98 µM [activator, single point] | – |
| O=C(NC(=C(Cl)Cl)S(=O)(=O)c1ccc(Cl)cc1)c1ccccc1 | inconclusive: 5.62 µM [activator, single point] | – |
| O=[N+]([O-])c1ccc2c(c1)Nc1nc3ccccc3nc1N2 | inconclusive: 17.8 µM [activator, single point] | – |
| CCOc1ccccc1C(=O)Nc1c(NC)c2ccccc2oc1=O | inconclusive: 7.94 µM [activator, partial curve] | – |
| CCOC(=O)C1CCCN(S(=O)(=O)c2ccc(S(=O)(=O)N3CCCC3)cc2)C1 (configuration not stated) | – | inactive: -0.645% |
| O=[N+]([O-])c1ccc(N2CCN(Cc3ccccc3)CC2)c2c1no[n+]2[O-] | inconclusive: 3.55 µM [activator, full curve, poor fit] | – |
| CCCCNS(=O)(=O)c1ccc2nc(NC(=O)c3cccnc3)sc2c1 | – | inactive: -0.0443% |
| O=C(CSc1nc2ccccc2c(=O)[nH]1)Nc1ccccc1O | inconclusive: 11.2 µM [activator, partial curve] | – |
| Cc1cc(C)n2nc(-c3cccc(Br)c3)cc2n1 | inconclusive: 35.5 µM [activator, single point] | – |
| O=C(/C=C/C(Cl)(Cl)Cl)Nc1ccc(Cl)cc1 | inconclusive: 17.8 µM [activator, single point] | – |
| Cc1ccc2nc(N/N=C/c3ccco3)cc(C)c2c1 | inconclusive: 2 µM [activator, partial curve, poor fit] | – |
| COc1cc2c(c3oc(-c4ccccc4)cc(=O)c13)C=CC(C)(C)O2 | – | inactive: 0.136% |
